Targets include SHP2 C-SH2 domain E139D; SHP2 N-SH2 domain L43F; SHP2 N-SH2 domain T42A; SHP2 N-SH2 domain T52S.
Experiment in all cases: enrichment score (SH2-bound / input frequency) (ratio); bacterial display of known human phosphotyrosine sites (pTyr-Var adds point mutants) read by sequencing; higher = stronger binding; tyrosines were phosphorylated by kinases first
Details in all cases: peptide library: pTyr-Var

Assay [1] addresses SHP2 C-SH2 domain wild-type.
Assay [2] has as its target SHP2 N-SH2 domain wild-type.

Data on 18 molecules can be found in the supplement of paper PMC10369915.

This is one part of the list. No stated cut-off is given here; in the data, active = 3.2 or more and inactive = the rest. The signal is at background level for most entries.
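Further: displayed peptides selected on beads carrying the immobilized SH2 domain, with library peptides lacking any tyrosine serving as negative controls.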

For YEEDPYLVVNP [MCM6_Y810], the enrichment score in the assay with SHP2 C-SH2 domain E139D is inactive: 0.515; in assay [1] it was inactive: 0.647; in the assay with SHP2 N-SH2 domain L43F, inactive: 0.643; with SHP2 N-SH2 domain T42A, inactive: 0.601; with SHP2 N-SH2 domain T52S, inactive: 0.536; in assay [2], inactive: 0.691.
LGRTRYQDVTG [MIPEP_Y510_H512D]: the enrichment score with SHP2 C-SH2 domain E139D is inactive: 0.743; in assay [1], inactive: 0.589; in the assay with SHP2 N-SH2 domain L43F it was inactive: 0.843; in the assay with SHP2 N-SH2 domain T42A, inactive: 0.651; in the assay with SHP2 N-SH2 domain T52S, inactive: 0.642; in assay [2] it was inactive: 0.771.
In the case of RAKLFYQEVPA [METTL11B_Y76], the enrichment score was inactive: 0.896 with SHP2 C-SH2 domain E139D; inactive: 1.02 in assay [1]; inactive: 0.758 with SHP2 N-SH2 domain L43F; inactive: 0.971 in the assay with SHP2 N-SH2 domain T42A; inactive: 0.782 with SHP2 N-SH2 domain T52S; inactive: 1.1 in assay [2].
As for LARDMDDKEFF [MET_Y1230_Y1230D_YF], the enrichment score with SHP2 C-SH2 domain E139D was inactive: 0.781; in assay [1], inactive: 0.757; with SHP2 N-SH2 domain L43F it was inactive: 0.527; in the assay with SHP2 N-SH2 domain T42A it was inactive: 0.854; with SHP2 N-SH2 domain T52S, inactive: 0.734; in assay [2] it was inactive: 0.572.
On to QADVIYVNTQL [MERTK_Y872], for which the enrichment score with SHP2 C-SH2 domain E139D was inactive: 1.06; in assay [1], inactive: 1.21; with SHP2 N-SH2 domain L43F it was inactive: 0.935; with SHP2 N-SH2 domain T42A, inactive: 1.3; in the assay with SHP2 N-SH2 domain T52S, inactive: 0.928; in assay [2], inactive: 1.05.
Regarding LARDMCDKEYY [MET_Y1230_Y1230C], the enrichment score in the assay with SHP2 C-SH2 domain E139D was inactive: 1.05; in assay [1], inactive: 0.999; in the assay with SHP2 N-SH2 domain L43F, inactive: 1.16; in the assay with SHP2 N-SH2 domain T42A, inactive: 0.982; with SHP2 N-SH2 domain T52S it was inactive: 1.04; in assay [2] it was inactive: 1.12.
For the molecule QADVTYVNTQL [MERTK_Y872_I871T], the enrichment score with SHP2 C-SH2 domain E139D is inactive: 1.63; in assay [1], inactive: 1.97; with SHP2 N-SH2 domain L43F it was inactive: 1.89; in the assay with SHP2 N-SH2 domain T42A it was active: 7.17; in the assay with SHP2 N-SH2 domain T52S it was inactive: 1.76; in assay [2], inactive: 1.57.
In the case of QSKGIYFVQLE [MGAT4B_Y262_YF], the enrichment score in the assay with SHP2 C-SH2 domain E139D was inactive: 1.43; in assay [1], inactive: 1.13; with SHP2 N-SH2 domain L43F, inactive: 1.28; with SHP2 N-SH2 domain T42A, inactive: 1.21; in the assay with SHP2 N-SH2 domain T52S, inactive: 1.38; in assay [2] it was inactive: 1.52.
On to MPAVTYTPAMR [MEGF10_Y895], for which the enrichment score in the assay with SHP2 C-SH2 domain E139D is inactive: 0.674; in assay [1], inactive: 0.478; with SHP2 N-SH2 domain L43F it was inactive: 0.663; with SHP2 N-SH2 domain T42A, inactive: 0.47; with SHP2 N-SH2 domain T52S, inactive: 0.491; in assay [2], inactive: 0.589.
In the case of RSAGKYDVFLI [MECP2_Y120_YF], the enrichment score with SHP2 C-SH2 domain E139D was inactive: 0.909; in assay [1], inactive: 0.936; with SHP2 N-SH2 domain L43F it was inactive: 0.928; in the assay with SHP2 N-SH2 domain T42A, inactive: 0.845; with SHP2 N-SH2 domain T52S it was inactive: 0.867; in assay [2], inactive: 0.984.
LARHMYDKEYY [MET_Y1230_D1228H]: the enrichment score with SHP2 C-SH2 domain E139D was inactive: 0.705; in assay [1] it was inactive: 0.915; with SHP2 N-SH2 domain L43F it was inactive: 0.712; with SHP2 N-SH2 domain T42A, inactive: 0.551; with SHP2 N-SH2 domain T52S, inactive: 1.07; in assay [2], inactive: 0.963.
With GESSGYLRLAF [MEP1A_Y481_R476G], the enrichment score was inactive: 1.29 with SHP2 C-SH2 domain E139D; inactive: 2.61 in assay [1]; active: 6.18 with SHP2 N-SH2 domain L43F; active: 13.5 with SHP2 N-SH2 domain T42A; active: 8.69 with SHP2 N-SH2 domain T52S; inactive: 2.7 in assay [2].
For the molecule QADIIYVNTQL [MERTK_Y872_V870I], the enrichment score was inactive: 1.21 with SHP2 C-SH2 domain E139D; inactive: 1.44 in assay [1]; inactive: 1.12 with SHP2 N-SH2 domain L43F; inactive: 1.42 with SHP2 N-SH2 domain T42A; inactive: 1.07 with SHP2 N-SH2 domain T52S; inactive: 1.23 in assay [2].
On to RSAGKYDVYLI [MECP2_Y120], for which the enrichment score was inactive: 0.924 in the assay with SHP2 C-SH2 domain E139D; inactive: 1.07 in assay [1]; inactive: 1.05 with SHP2 N-SH2 domain L43F; inactive: 0.714 with SHP2 N-SH2 domain T42A; inactive: 0.915 with SHP2 N-SH2 domain T52S; inactive: 1.28 in assay [2].
In the case of NFPGGYSGSVK [MCPH1_Y606_L602F], the enrichment score in the assay with SHP2 C-SH2 domain E139D was inactive: 0.9; in assay [1], inactive: 0.647; with SHP2 N-SH2 domain L43F, inactive: 0.763; in the assay with SHP2 N-SH2 domain T42A, inactive: 0.668; with SHP2 N-SH2 domain T52S it was inactive: 0.861; in assay [2], inactive: 0.664.
RKPDIYGRLAS [MCM4_Y459_E460G]: the enrichment score is inactive: 1.35 with SHP2 C-SH2 domain E139D; inactive: 1.3 in assay [1]; inactive: 1.15 with SHP2 N-SH2 domain L43F; inactive: 0.847 in the assay with SHP2 N-SH2 domain T42A; inactive: 1.14 with SHP2 N-SH2 domain T52S; inactive: 1.16 in assay [2].
Regarding HSKGIYYVQLE [MGAT4B_Y262_Q257H], the enrichment score was inactive: 1.26 in the assay with SHP2 C-SH2 domain E139D; inactive: 2.04 in assay [1]; active: 3.35 with SHP2 N-SH2 domain L43F; active: 9.58 with SHP2 N-SH2 domain T42A; active: 4.2 with SHP2 N-SH2 domain T52S; inactive: 1.98 in assay [2].
On to SSENPYATIKD [MEGF10_Y1030], for which the enrichment score with SHP2 C-SH2 domain E139D is inactive: 0.871; in assay [1], inactive: 2.49; with SHP2 N-SH2 domain L43F it was inactive: 0.548; with SHP2 N-SH2 domain T42A, inactive: 0.734; in the assay with SHP2 N-SH2 domain T52S it was inactive: 0.624; in assay [2], inactive: 0.589.
